Assay results reported in US20260256927A1 (Merck Sharp & Dohme, published 2026).

T1: IL-2Rα-Fc (Acro Biosystems, catalog #ILA-H5251) (UniProt P01589 22-217, limits assumed)
T1 construct: Bought reagent; Captured on an anti-Fc chip as SPR ligand; also called CD25; not shown: Fc part of the bought fusion
T1 sequence (looked up): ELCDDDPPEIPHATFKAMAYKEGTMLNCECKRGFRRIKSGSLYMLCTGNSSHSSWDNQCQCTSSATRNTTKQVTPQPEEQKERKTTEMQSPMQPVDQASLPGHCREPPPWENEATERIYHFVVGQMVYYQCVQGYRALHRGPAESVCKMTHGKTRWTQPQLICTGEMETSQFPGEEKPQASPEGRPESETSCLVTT

T2: IL-2Rβ-Fc (Acro Biosystems, catalog #ILB-H5253) (UniProt P14784 27-239, limits assumed)
T2 construct: Bought reagent; Captured on an anti-Fc chip as SPR ligand; also called CD122; not shown: Fc part of the bought fusion
T2 sequence (looked up): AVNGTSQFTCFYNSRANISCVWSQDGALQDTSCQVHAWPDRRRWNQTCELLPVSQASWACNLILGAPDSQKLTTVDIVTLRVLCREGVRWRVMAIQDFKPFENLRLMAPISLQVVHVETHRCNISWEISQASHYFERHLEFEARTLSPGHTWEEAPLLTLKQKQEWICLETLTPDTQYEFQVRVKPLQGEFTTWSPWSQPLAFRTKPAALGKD


Assays:
[1] = target: T1, IL-2Rα-Fc (Acro Biosystems, catalog …); test: SPR (Biacore T200), kinetic; receptor-Fc captured on anti-Fc CM5 chip, IL-2 variant as analyte
Protocol: (§1) Anti-Fc polyclonal antibodies were immobilized onto a CM5 chip (GE Life Sciences) using amine coupling chemistry (from Amine Coupling Kit, GE Life Sciences). The immobilization steps were carried out at a flow rate of 25 μL/minute in 1×HBS-EP+ buffer (GE Life Sciences; 10× Stock diluted before use). The sensor surfaces were activated for 7 minutes with a mixture of NHS (0.05 M) and EDC (0.2 M). The anti-Fc antibodies were injected over all four flow cells at a concentration of 25 μg/mL in 10 mM sodium acetate, pH 4.5, for seven minutes. Ethanolamine (1 M, pH 8.5) was injected for seven minutes to block any remaining activated groups.
(§2) Kinetic binding experiments were performed at 25° C. using 1×HBS-EP+ with 0.05% BSA buffer. IL-2Rα-Fc or IL-2Rβ-Fc (Acro Biosystems, catalog #ILA-H5251, ILB-H5253) was injected over the anti-Fc surface at concentrations of 3-10 μg/mL for 12 seconds at a flow rate of 10 μL/minute on flow cells 2, 3 and 4, followed by a buffer wash for 30 seconds at the same flow rate. Kinetic characterization of conjugated or unconjugated aldesleukin or variants was carried out in a range of concentrations from 1 nM-10 μM and one injection of no antigen. After capturing ligand (IL-2Rα-Fc or IL-2Rβ-Fc) on the anti-Fc surface, the analyte (IL-2 variant) was bound for 60 seconds, followed by a 180 second dissociation phase at a flow rate of 50 μL/min. Between each ligand capture and analyte binding cycle, regeneration was carried out using two injections of 10 mM Glycine pH 1.5 for 30 seconds at 30 μL/minute, followed by a 30 second buffer wash step.

[2] = target: T2, IL-2Rβ-Fc (Acro Biosystems, catalog …); test: as above
Protocol: as §1, §2

Aldesleukin-6His, sequence (chain): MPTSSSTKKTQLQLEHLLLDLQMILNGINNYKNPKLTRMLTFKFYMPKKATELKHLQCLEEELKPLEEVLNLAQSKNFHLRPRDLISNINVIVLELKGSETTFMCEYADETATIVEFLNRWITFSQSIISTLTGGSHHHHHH

| Kd [1] | Kd [2] | Binder |
| --- | --- | --- |
| 10 nM |  | Ald-6HIS_F77pAMF (SP9942), unconjugated (ligand, X78 = pAMF (F77 in SEQ ID NO: 2/3 numbering), also called Aldesleukin-6His F77TAG p-azidomethyl-L-phenylalanine) not shown |
| 8 nM | 300 nM | Aldesleukin-6His (ligand, also called Ald-6HIS; Ald-6His) not shown |
|  | 200 nM | Ald-6HIS_F41pAMF (SP9960), unconjugated (ligand, X42 = pAMF (F41 in SEQ ID NO: 2/3 numbering), also called Aldesleukin-6His F41TAG p-azidomethyl-L-phenylalanine) not shown |
